Assay results taken from the supplement of paper PMC8728848.
The list shows a part of the results.

Columns and labels:
Assay in all cases: glycan array binding signal (z-score within array); higher = stronger binding
Settings in all cases: glycan notation: IUPAC condensed, linker removed
[1] = target: GlcNAc(b1-3)Gal(b1-4)GlcNAc(b1-3)Gal(b1-4)GlcNAc(b1-3)GalNAc
Outline: (§1)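 Columns mapping to the same glycan were averaged after glycan names were converted to IUPAC-condensed notation. The data come from 3228 arrays in the Consortium for Functional Glycomics database, limited to those with an available protein sequence. Binding is reported as a within-array Z-score averaged across arrays of one protein sequence and across linkers.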

[2] = target: GlcNAc(b1-3)Gal(b1-4)GlcNAc(b1-3)GalNAc
Outline: as §1

[3] = target: GlcNAc(b1-3)Gal(b1-4)GlcNAc(b1-3)[GlcNAc(b1-3)Gal(b1-4)GlcNAc(b1-3)]GalNAc
Outline: as §1

[4] = target: GlcNAc(b1-3)Gal(b1-4)GlcNAc(b1-6)[Gal(b1-3)]GalNAc
Outline: as §1

[5] = target: GlcNAc(b1-3)Gal(b1-4)GlcNAc(b1-6)[GlcNAc(b1-3)Gal(b1-3)]GalNAc
Outline: as §1

[6] = target: GlcNAc(b1-3)Gal(b1-4)GlcNAc(b1-6)[GlcNAc(b1-3)]Gal(b1-4)GlcNAc
Outline: as §1

[7] = target: GlcNAc(b1-3)GalNAc
Outline: as §1

[8] = target: GlcNAc(b1-3)Man
Outline: as §1

[9] = target: GlcNAc(b1-3)[GlcNAc(b1-4)][GlcNAc(b1-6)]GlcNAc
Outline: as §1

[10] = target: GlcNAc(b1-3)[GlcNAc(b1-6)]Gal(b1-4)GlcNAc
Outline: as §1

[11] = target: GlcNAc(b1-3)[GlcNAc(b1-6)]GalNAc
Outline: as §1

[12] = target: GlcNAc(b1-4)Gal(b1-4)GlcNAc
Outline: as §1

[13] = target: GlcNAc(b1-4)GlcNAc
Outline: as §1

[14] = target: GlcNAc(b1-4)GlcNAc(b1-4)GlcNAc
Outline: as §1

[15] = target: GlcNAc(b1-4)GlcNAc(b1-4)GlcNAc(b1-4)GlcNAc(b1-4)GlcNAc
Outline: as §1

[16] = target: GlcNAc(b1-4)GlcNAc(b1-4)GlcNAc(b1-4)GlcNAc(b1-4)GlcNAc(b1-4)GlcNAc
Outline: as §1

[17] = target: GlcNAc(b1-4)[GlcNAc(b1-6)]GalNAc
Outline: as §1

[18] = target: GlcNAc(b1-6)Gal(b1-4)GlcNAc
Outline: as §1

[19] = target: GlcNAc(b1-6)GalNAc
Outline: as §1

[20] = target: GlcNAc6S(b1-3)Gal(b1-4)GlcNAc
Outline: as §1

[21] = target: Kdn(a2-3)Gal(b1-3)GalNAc
Outline: as §1

[22] = target: Kdn(a2-3)Gal(b1-3)GlcNAc
Outline: as §1

[23] = target: Kdn(a2-3)Gal(b1-4)Glc
Outline: as §1

[24] = target: Kdn(a2-3)Gal(b1-4)GlcNAc
Outline: as §1

[25] = target: Kdn(a2-3)Gal(b1-4)[Fuc(a1-3)]GlcNAc
Outline: as §1

[26] = target: Kdn(a2-6)Gal(b1-4)GlcNAc
Outline: as §1

[27] = target: Man(a1-2)Man(a1-2)Man(a1-3)Man
Outline: as §1

[28] = target: Man(a1-2)Man(a1-2)Man(a1-6)[Man(a1-3)]Man
Outline: as §1

[29] = target: Man(a1-2)Man(a1-3)Man
Outline: as §1

[30] = target: Man(a1-2)Man(a1-3)[Man(a1-2)Man(a1-6)]Man
Outline: as §1

[31] = target: Man(a1-2)Man(a1-3)[Man(a1-2)Man(a1-6)]Man(a1-6)[Man(a1-2)Man(a1-2)Man(a1-3)]Man
Outline: as §1

[32] = target: Man(a1-2)Man(a1-3)[Man(a1-2)Man(a1-6)]Man(a1-6)[Man(a1-2)Man(a1-2)Man(a1-3)]Man(b1-4)GlcNAc(b1-4)GlcNAc
Outline: as §1

[33] = target: Man(a1-2)Man(a1-3)[Man(a1-6)]Man(a1-6)[Man(a1-2)Man(a1-3)]Man(b1-4)GlcNAc(b1-4)GlcNAc
Outline: as §1

[34] = target: Man(a1-2)Man(a1-6)[Man(a1-3)]Man(a1-6)[Man(a1-2)Man(a1-2)Man(a1-3)]Man
Outline: as §1

[35] = target: Man(a1-2)Man(a1-6)[Man(a1-3)]Man(a1-6)[Man(a1-2)Man(a1-2)Man(a1-3)]Man(b1-4)GlcNAc(b1-4)GlcNAc
Outline: as §1

[36] = target: Man(a1-3)[Man(a1-6)]Man
Outline: as §1

[37] = target: Man(a1-3)[Man(a1-6)]Man(a1-6)[Man(a1-2)Man(a1-3)]Man(b1-4)GlcNAc(b1-4)GlcNAc
Outline: as §1

[38] = target: Man(a1-3)[Man(a1-6)]Man(a1-6)[Man(a1-3)]Man
Outline: as §1

[39] = target: Man(a1-3)[Man(a1-6)]Man(a1-6)[Man(a1-3)]Man(b1-4)GlcNAc(b1-4)GlcNAc
Outline: as §1

[40] = target: Man(a1-3)[Man(a1-6)]Man(b1-4)GlcNAc(b1-4)GlcNAc
Outline: as §1

[41] = target: Man(a1-3)[Man(a1-6)]Man(b1-4)GlcNAc(b1-4)[Fuc(a1-6)]GlcNAc
Outline: as §1

[42] = target: Man(a1-6)Man
Outline: as §1

[43] = target: Man(b1-4)GlcNAc
Outline: as §1

[44] = target: MurNAc(b1-4)GlcNAc
Outline: as §1

[45] = target: Neu5Ac(a2-3)Gal
Outline: as §1

B1: Clec49 (Caenorhabditis elegans) (protein)
chain: MTRLTLLLFGLLGAATAQTCNTGGIYNEQFNRCYQYFTAPAQFSFAEQQCNLLGGHLASVQNGQENALLQSNAANSFKRSNYSDYWIGATDLETSGTWKWTDPSVTFDYSNWQLGEPQSGSDCAIQDKGDGTWSAIGCTSYRPYVCVTPVIMTATCPPITTPIPTTCPTPAPCPIKQCVPSCDQGWTYFSPTDFCYRVYHGEKFNDAEASCVLLGGHLASIHSLTENTFVNNIASCGIKEGKYEHLAWIGMRKVGQDWVWTDGTPSDYFNWAPKQPDNPKKELCVQTAPDLSHDKWYENWNNLECNEVMRAYICKKASIHN
glycan array binding signal (z-score) [1]: -0.473 | glycan array binding signal (z-score) [2]: 1.09 | glycan array binding signal (z-score) [3]: 0.912 | glycan array binding signal (z-score) [4]: 0.25 | glycan array binding signal (z-score) [5]: -0.572 | glycan array binding signal (z-score) [6]: -0.374 | glycan array binding signal (z-score) [7]: -0.399 | glycan array binding signal (z-score) [8]: -0.366 | glycan array binding signal (z-score) [9]: 0.48 | glycan array binding signal (z-score) [10]: -0.239 | glycan array binding signal (z-score) [11]: -0.61 | glycan array binding signal (z-score) [12]: 0.877 | glycan array binding signal (z-score) [13]: -0.318 | glycan array binding signal (z-score) [14]: -0.108 | glycan array binding signal (z-score) [15]: -0.408 | glycan array binding signal (z-score) [16]: -0.849 | glycan array binding signal (z-score) [17]: -0.524 | glycan array binding signal (z-score) [18]: -0.259 | glycan array binding signal (z-score) [19]: -0.472 | glycan array binding signal (z-score) [20]: -0.446 | glycan array binding signal (z-score) [21]: -0.04 | glycan array binding signal (z-score) [22]: -0.418 | glycan array binding signal (z-score) [23]: -0.4 | glycan array binding signal (z-score) [24]: -0.063 | glycan array binding signal (z-score) [25]: -0.099 | glycan array binding signal (z-score) [26]: -0.226 | glycan array binding signal (z-score) [27]: -0.373 | glycan array binding signal (z-score) [28]: -0.455 | glycan array binding signal (z-score) [29]: 0.656 | glycan array binding signal (z-score) [30]: -0.266 | glycan array binding signal (z-score) [31]: -0.181 | glycan array binding signal (z-score) [32]: -0.538 | glycan array binding signal (z-score) [33]: -0.521 | glycan array binding signal (z-score) [34]: -0.477 | glycan array binding signal (z-score) [35]: -0.395 | glycan array binding signal (z-score) [36]: -0.553 | glycan array binding signal (z-score) [37]: -0.268 | glycan array binding signal (z-score) [38]: -0.179 | glycan array binding signal (z-score) [39]: -0.235 | glycan array binding signal (z-score) [40]: -0.617 | glycan array binding signal (z-score) [41]: 0.126 | glycan array binding signal (z-score) [42]: -0.35 | glycan array binding signal (z-score) [43]: -0.478 | glycan array binding signal (z-score) [44]: -0.504 | glycan array binding signal (z-score) [45]: -0.853
